# Laboratory results: publication PMC6919601, “Identification of Plasmodium dipeptidyl aminopeptidase allosteric inhibitors by high throughput screening” (PLoS ONE, 2019)
# Among all 110,000 compounds or so, about 230 (0.21%) showed an effect of 50% or more. Some of the results follow.
# Target: DPAP1 (Plasmodium falciparum, UniProt Q8IIJ9)
# Assay: primary screen, percent inhibition; read by cleavage of a fluorogenic dipeptide substrate; higher = more effect of the substance
# Set-up: species or system P. falciparum D10 trophozoite lysates; single well
# 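Further: 30 min substrate incubation versus DMSO and 10 µM JCP410 controls.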
# Chain of DPAP1 (Q8IIJ9 whole entry, looked up): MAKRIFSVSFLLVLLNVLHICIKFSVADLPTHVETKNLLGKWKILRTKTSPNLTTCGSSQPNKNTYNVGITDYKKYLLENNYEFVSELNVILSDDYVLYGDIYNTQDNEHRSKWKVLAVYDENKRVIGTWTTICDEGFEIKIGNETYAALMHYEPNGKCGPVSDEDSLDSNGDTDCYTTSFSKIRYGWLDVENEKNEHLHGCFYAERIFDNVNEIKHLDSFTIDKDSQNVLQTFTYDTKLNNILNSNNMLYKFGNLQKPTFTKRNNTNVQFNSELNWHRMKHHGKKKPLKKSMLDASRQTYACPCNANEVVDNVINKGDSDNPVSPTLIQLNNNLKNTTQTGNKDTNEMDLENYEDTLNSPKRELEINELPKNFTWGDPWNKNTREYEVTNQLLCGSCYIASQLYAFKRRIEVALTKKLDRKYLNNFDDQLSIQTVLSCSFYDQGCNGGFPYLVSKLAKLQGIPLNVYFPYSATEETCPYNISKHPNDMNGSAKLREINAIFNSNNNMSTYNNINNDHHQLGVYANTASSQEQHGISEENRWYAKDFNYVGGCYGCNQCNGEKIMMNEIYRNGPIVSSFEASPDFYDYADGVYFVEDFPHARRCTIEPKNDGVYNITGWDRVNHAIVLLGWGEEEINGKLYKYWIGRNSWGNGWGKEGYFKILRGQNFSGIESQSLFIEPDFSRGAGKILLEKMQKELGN
row,Compound,% Inhibition @ 10 uM [%]
1,CCOc1ccc(S(=O)(=O)N2CCN(c3ccc(Cl)cc3)CC2)cc1,3.21
2,Brc1ccc(Nc2nc(-c3ccccc3)c3cc(Br)ccc3n2)cc1,-3.93
3,CCc1ccc(OC(C)C(=O)N(Cc2ccccc2)C2CCS(=O)(=O)C2)cc1 (centres unmarked),-4.85
4,NC(=O)COc1ccccc1/C=C1/SC(=O)N(CC(=O)N2CCCCC2)C1=O,2.17
5,COc1ccccc1C(=O)Nc1ccc2ncccc2c1,2.7
6,O=C(Nc1ccc(F)cc1)NC1CCCCC1,-5.84
7,CCN(CC)C(=O)c1cc2cc(Br)ccc2oc1=O,-1.25
8,COc1cc(-c2nnc3sc(/C=C/c4ccco4)nn23)cc(OC)c1OC,6.01
9,Cc1cccc(C(=O)N2CCN(C/C=C/c3ccccc3)CC2)c1,1.4
10,COc1cc(OC)cc(-n2nnc(-c3nc(-c4cccnc4)no3)c2N)c1,3.98
11,c1ccc(Oc2ncnc3sc4c(c23)CCCC4)cc1,-0.0267
12,O=C1OC(c2ccc(Oc3ccccc3)cc2)=C/C1=C\c1ccco1,-0.169
13,O=C(c1cccnc1)N1CCN(Cc2ccc3ccccc3c2)CC1,7.1
14,Cc1ccc(/C(O)=C/c2nc3ccccc3oc2=O)cc1,-4.43
15,CCc1ccc(-n2nnc(-c3nsc(NC(=O)c4cccs4)n3)c2C)cc1,5.88
16,CCc1ccccc1-n1nnc(-c2ccccc2)n1,-1.71
17,COc1ccccc1CNC(=O)CCc1nnc2n(Cc3ccccc3)c(=O)c3ccccc3n12,-2.42
18,c1ccc(N2CCN(Cc3c[nH]c4ccccc34)CC2)cc1,12.3
19,COc1ccc2sc3ccccc3c(=O)c2c1OC,-1.32
20,CC1(C)Oc2ccc3ccc(=O)oc3c2-c2cnoc21,3.73
21,Cc1[nH]c2ccccc2c1SCCNC(=O)c1ccc(OC(C)C)cc1,-4.86
22,COc1ccc(OC)c(CN2CCN(Cc3ccccc3OC)CC2)c1,-6.59

row,Compound,% Inhibition @ 10 uM [%]
1,CCOc1ccccc1N1CCN(Cc2ccc(Br)s2)CC1,-7.5
2,Cc1c2cnn(CC(=O)NCCN(C)C)c(=O)c2c(C)n1Cc1ccccc1Cl,-0.447
3,CCOC(=O)N1CCN(c2c(N3CCCC(C)C3)c(=O)c2=O)CC1 (centres unmarked),-1.44
4,COCCNC(=O)c1cc2n(n1)C(C(F)(F)F)CC(c1ccc(F)cc1)N2 (centres unmarked),0.751
5,CCOC(=O)c1c(NC(=O)COc2cc(C)c(Cl)c(C)c2)sc(C(C)=O)c1C,12.5
6,O=C(COc1ccccc1)Nc1ccc(Cl)cn1,2.32
7,CCOc1ccc(N/C=C2\C(=O)CNC2=O)cc1,1.35
8,C=CCO/C(O)=C1/C(C)=Nc2ncnn2C1c1ccc(OC)c(Br)c1 (centres unmarked),1.73
9,CC(C)CN(CC(C)C)c1nc2c(S(=O)(=O)c3ccccc3)nnn2c2ccccc12,1.51
10,O=C1ON=C(c2ccccc2)/C1=C/c1ccc(Br)s1,-2.87
11,CCSc1ncc(Cl)c(C(=O)NCc2ccc3c(c2)OCO3)n1,-2.85
12,O=C(CN1C(=O)CSc2ncccc21)NCCCN1CCC(Cc2ccccc2)CC1,2.65
13,CC(=O)c1ccc(NC(=O)COc2ccc(Cl)cc2Br)cc1,4.39
14,CC(C)Cc1ccc(C(C)C(=O)N2CCN(C)CC2)cc1 (centres unmarked),-0.446
15,CC(=O)Nc1ccc(N(C)C)c(C(C)(C)C)c1,-6.41
16,CCOC(=O)c1c(-c2ccccc2)csc1NC(=O)c1cc(CC(C)C)on1,3.55
17,Cc1nc(N2CCN(c3ccccn3)CC2)c2c(C)c(C(=O)N3CC(C)CC(C)C3)sc2n1 (centres unmarked),5.59
18,CCOc1nc(-c2cccc(OC)c2)ccc1-c1noc(C)n1,-3.13
19,CN1CCC(N(C)Cc2ccc([N+](=O)[O-])o2)CC1,-0.828
20,Cc1ccc(CCNC(=O)C2CCN(S(=O)(=O)N3CCCCC3)CC2)cc1,-3.12
21,Cc1ccsc1/C=C1\SC(c2ccccc2)=NC1=O,16
22,COC(=O)c1nnn(-c2ccc(OC)cc2)c1C(=O)OC,3.48

row,Compound,% Inhibition @ 10 uM [%]
1,CCN(CC)CCCNC(=O)C1c2ccccc2C(=O)N(CCOC)C1c1cn(C)c2ccccc12 (centres unmarked),2.35
2,O=C(CN1C(=O)C2C3CCC(C3)C2C1=O)Nc1ccccc1C(=O)O (centres unmarked),-0.425
3,CCCc1cc(O)n2nc(-c3ccc(OC)cc3)cc2n1,1.52
4,CCn1c2ccccc2c2cc(CN3CC(C)CC(C)C3)ccc21 (centres unmarked),-2.34
5,CC(C)(C)c1cc(NC(=O)CSc2n[nH]c(N)n2)cc(C(C)(C)C)c1,0.823
6,Cc1cc(C)c2nc(C)c(CN(C)C3CCCCC3)c(O)c2c1,0.487
7,COc1ccc(C(=O)Nc2sc3c(c2C(=O)O)CC(C)(C)OC3)cc1,1.61
8,CC1=C(C#N)C(C(F)(F)F)(C(F)(F)F)NC(c2ccncc2)=N1,-3.19
9,O=C(C1=C(O)C(=O)N(c2ccc(CCO)cc2)C1c1cccnc1)c1ccco1 (centres unmarked),-3.25
10,CC(N)Cc1ccccc1Sc1ccccc1O (centres unmarked),-4.54
11,O=C(NCc1cccnc1)c1ccc(COc2cccc3ccccc23)o1,7.76
12,CCN(CC)C(=O)C1CCCN(Cc2cc(Br)cs2)C1 (centres unmarked),-2.81
13,Cc1ccc(/C=C(\C#N)c2nc(-c3ccc(C)cc3)cs2)cc1,-4.08
14,Cc1ccc2c(=O)c(C(=O)c3cccc(Cl)c3)cn(CC(=O)NCCC3=CCCCC3)c2n1,1.02
15,CC(C)OP(=O)(Cc1cccc(C#N)c1)OC(C)C,3.06
16,CC1CCN(S(=O)(=O)c2ccc3c(ccn3CC(=O)O)c2)CC1,1.42
17,CCN(CC)S(=O)(=O)c1ccc(NC(=O)C(C)Oc2ccc(Cl)cc2Cl)cc1 (centres unmarked),1.62
18,Cc1ccc(-n2nnc3c(=O)n(Cc4ccc(C(F)(F)F)cc4)cnc32)cc1,-2.16
19,CCOC(=O)C1=C(CS(=O)(=O)c2ccc(F)c(C)c2)NC(=O)NC1c1ccc(OCC)cc1 (centres unmarked),-0.431
20,CCC(C)NC(=O)CN(c1ccc(OC)cc1OC)S(C)(=O)=O (centres unmarked),3.67
21,O=C(Nc1nc(C(F)(F)F)c(-c2ccccc2)s1)c1ccccc1F,6.5
